Measured values reported in PubChem BioAssay AID485294 (National Center for Advancing Translational Sciences (NCATS), 2010).
“And” between values parts separate entries of the source, which are not always exact repeats. Equal values may be shown once. In all, about 370,000 compounds went through this assay and about 150 (0.041%) were called active. Inconclusive results, whose numbers are uncertain, are shown with a selection of clear calls. Calls follow the shape of the dose curve; as a rule, active = well fitted inhibition curve with a large enough effect; inconclusive = small, poorly fitted or top-dose-only effect; inactive = flat fitted curve, though single readings scatter. Where the call is inconclusive, the potency comes from a doubtful curve fit.

What follows are compounds tested against Beta-lactamase (Escherichia coli (strain K12)) (UniProt P00811) (assay: qHTS Inhibitors of AmpC Beta-Lactamase (assay with detergent)). Conditions: AmpC hydrolysis of nitrocefin, absorbance 480 nm, 0.01% Triton; series mostly up to 114 µM.
How it was run: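 20 mM phosphate pH 7.0 + 0.01% (detergent screen) or 0.0001% Triton X-100; 5.3 nM AmpC reagent; cpd preinc 15 min RT; nitrocefin (800 uM stock) to start; A480 q20 s × 4 min; Activity was normalised to no-enzyme and no-compound control wells.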
Also: nearly all actives have a fitted effect of over 25% in size.
Potency is read from the fitted curve at half-maximal effect; tags tell the direction and shape of the fitted curve.

UniProt P00811, sequence (P00811 whole entry, looked up): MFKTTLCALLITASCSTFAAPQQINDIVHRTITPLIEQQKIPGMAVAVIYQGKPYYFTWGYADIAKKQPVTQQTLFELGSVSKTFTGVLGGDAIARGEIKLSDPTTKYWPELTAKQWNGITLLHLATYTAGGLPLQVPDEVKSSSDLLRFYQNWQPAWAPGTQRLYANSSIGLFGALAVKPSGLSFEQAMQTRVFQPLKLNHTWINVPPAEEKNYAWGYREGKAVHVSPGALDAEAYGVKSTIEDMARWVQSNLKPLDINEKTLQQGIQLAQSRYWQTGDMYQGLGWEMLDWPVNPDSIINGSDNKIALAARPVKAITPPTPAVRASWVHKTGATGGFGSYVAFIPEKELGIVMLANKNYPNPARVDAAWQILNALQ

Structure (SMILES)	Potency
Cc1ccc(C(=O)NNC(=O)CSc2nnc3c(n2)[nH]c2ccc(F)cc23)cc1	inconclusive: 100 µM [inhibitor, partial curve]
COc1ccc(NC(=O)c2ccc(CN3CCc4ccccc4C3)cc2)c(OC)c1	inconclusive: 1.41 µM [inhibitor, full curve, poor fit]
O=C(Nc1cccc(C2OCCCO2)c1)c1cccs1	inconclusive: 3.16 µM [inhibitor, full curve, poor fit]
COc1ccccc1N1CCN(S(=O)(=O)CCNC(=O)C2CCCCC2)CC1	inactive
O=S(=O)(NCCC1=CCCCC1)c1ccccc1Cl	inconclusive: 39.8 µM [inhibitor, single point]
CCCC(C)NC(=O)c1ccc(OCc2ccc(Cl)cc2)c(OC)c1 (stereo unspecified)	inconclusive: 1.12 µM [inhibitor, full curve, poor fit]
O=C(COC(=O)COc1ccc(Br)cc1)Nc1ccc2c(c1)OCCO2	inconclusive: 100 µM [inhibitor, single point]
COc1ccc(S(=O)(=O)N2CCN(C3CCN(Cc4ccccc4)CC3)CC2)cc1	inactive
CCc1nc(Sc2nc(C)cc(C)n2)c2oc3ccccc3c2n1	inconclusive: 0.355 µM [inhibitor, full curve, poor fit]
Cc1ccc(NC(=O)N2CCc3ccccc3C2)cc1C	inconclusive: 6.31 µM [inhibitor, full curve, poor fit]
CCN(CCNC(=O)c1cc(C)nn1-c1ccccc1)c1ccccc1	inconclusive: 5.01 µM [inhibitor, full curve]
Cc1ccccc1C(=O)OC1OC(=O)C(Cl)=C1N1CCOCC1 (stereo unspecified)	active: 3.98 µM
CCCN1CCC(=O)N([C@H](CSc2ccc(C)cc2)c2ccccc2)CC1	inactive
O=c1c2cn[nH]c2[nH]c(=S)n1-c1ccccc1Cl	inactive
COc1ccc(Cc2nnc(SCC(=O)N(C)CC(=O)Nc3ccc(C)cc3)o2)cc1	inconclusive: 0.631 µM [inhibitor, full curve, poor fit]
O=C(CSc1ccc([N+](=O)[O-])cn1)Nc1ccc2[nH]c(=O)[nH]c2c1	inactive
COc1cc([N+](=O)[O-])ccc1NC(=O)C1C2C=CC(C2)C1C(=O)O (stereo unspecified)	inconclusive: 100 µM [inhibitor, partial curve, poor fit]
CCOc1ccc(NC(=O)CCNc2c(N3CCCC3)c(=O)c2=O)cc1	inactive
COc1ccc(NS(=O)(=O)c2ccc(N)cc2)nn1	inconclusive: 100 µM [inhibitor, partial curve, poor fit] and inconclusive: 89.1 µM [inhibitor, single point]
NC(=S)N/N=C/c1ccc(-c2ccc(Cl)c(Cl)c2)o1	inconclusive: 39.8 µM [inhibitor, single point]
Nc1ccc(C(=O)NCC(=O)O)cc1	inconclusive: 5.62 µM [inhibitor, full curve, poor fit]
COc1ccc(C)cc1NC(=O)CSc1nc2ccccc2nc1N1CCCC1	inconclusive: 89.1 µM [inhibitor, partial curve]

Structure (SMILES)	Potency
N=c1oc2ccc(Cl)cc2cc1C(=O)Nc1ccc(F)cc1	inactive
Cc1cc(C)c2c(N)c(C(=O)Nc3c(C)n(C)n(-c4ccccc4)c3=O)sc2n1	inconclusive: 2.51 µM [inhibitor, full curve]
C[C@H](NC(=O)[C@H]1N2C(=O)c3ccccc3C2SC1(C)C)C(=O)N1CCCCC1 (stereo partly specified)	inactive
COC(=O)c1ccsc1NC(=O)C1COc2ccccc2O1 (stereo unspecified)	inconclusive: 56.2 µM [inhibitor, partial curve, poor fit]
O=C(Nc1ccc2c(c1)OCCO2)c1ccc(Cl)c(S(=O)(=O)N2CCOCC2)c1	inconclusive: 2.82 µM [inhibitor, single point]
C/C(=N\N(Cc1ccccc1)c1ccccc1)c1cccnc1	inconclusive: 12.6 µM [inhibitor, full curve]
CCCc1nc2c(o1)CC(CC(C)SCC)CC2=O (stereo unspecified)	inconclusive: 79.4 µM [inhibitor, partial curve, poor fit]
O=C(Nc1cccc2ccccc12)N1CCCN(c2c(Cl)cncc2Cl)CC1	inactive
COc1ccc(-c2nc(C(N)=O)c3[nH]c(=O)n(-c4cccc(C)c4)c3n2)c(OC)c1	inconclusive: 6.31 µM [inhibitor, full curve, poor fit]
CN(C)C(=O)N1CCN(S(=O)(=O)c2ccc3ccccc3c2)CC1	inconclusive: 35.5 µM [inhibitor, partial curve]
Cc1ccc(NC(=O)COC(=O)C2C3CC4OC(=O)C2C4C3)cc1Cl (stereo unspecified)	inconclusive: 1.26 µM [inhibitor, full curve, poor fit]
O=C(CC(=O)c1ccccc1)Nc1cccnc1	inconclusive: 50.1 µM [inhibitor, partial curve, poor fit]
C=CCn1c(SCC(=O)N2CCN(c3ccccc3)CC2)nnc1-c1ccco1	inconclusive: 1.58 µM [inhibitor, full curve, poor fit]
Cc1ccc(C(=O)NC2CC(C)(C)NC(C)(C)C2)cc1Cl	inactive
CC(=O)c1c(C)[nH]c(C(=O)CN2C(=O)NC(C)(c3ccc4c(c3)OCO4)C2=O)c1C (stereo unspecified)	inconclusive: 1.26 µM [inhibitor, full curve, poor fit]
CC(=O)Cc1nsc(NC(=O)c2ccc(Br)o2)n1	inactive
CCc1ccc(N2CCN(C(=O)c3ccc(OC)c(OC)c3)CC2)cc1	inconclusive: 5.62 µM [inhibitor, full curve, poor fit]
CC(=O)Nc1ccc(-c2ccc(NC(C)=O)cc2)cc1	inactive
CC(C)(C)n1nc2c(c1NC(=O)Cc1cccs1)CSC2	inconclusive: 5.01 µM [inhibitor, full curve, poor fit]
O=c1c(Cl)c(N2CCNCC2)cnn1C12CC3CC(CC(C3)C1)C2	inactive
O=C(/C=C/Nc1ccc(F)c(F)c1)c1ccc(Br)cc1	inactive
CCOc1ccc2oc(C(=O)N(CCOC)c3c(N)n(CC(C)C)c(=O)[nH]c3=O)c(C)c2c1	inconclusive: 0.631 µM [inhibitor, full curve, poor fit]

Structure (SMILES)	Potency
O=C(O)c1ccccc1C(=O)OCCCCOC(=O)c1ccccc1C(=O)O	inconclusive: 89.1 µM [inhibitor, single point]
CCC(C)(C)NC(=O)C(c1ccc(OC)cc1)N(C(=O)CCC(=O)Nc1cc(C)on1)c1ccc2c(c1)OCO2 (stereo unspecified)	inactive
COc1ccc(C(O)CNc2ccc(C)cc2)cc1 (stereo unspecified)	inconclusive: 7.94 µM [inhibitor, full curve, poor fit]
N#CCn1c(C2CCCCC2)nc2ccccc2c1=O	inconclusive: 56.2 µM [inhibitor, partial curve]
Cc1cc(C)cc(OCC(=O)OCc2nnc(-c3ccccc3)o2)c1	inconclusive: 100 µM [inhibitor, single point]
Cc1[nH]n(-c2ccccc2)c(=O)c1/C=N/NC(=O)c1cccc(F)c1	inactive
CCOC(=O)c1ccc(N2C(=O)c3n[nH]c(-c4ccco4)c3C2c2cccc(F)c2)cc1 (stereo unspecified)	inactive
CC(C(=O)Nc1ncc([N+](=O)[O-])s1)N1C(=O)c2ccccc2S1(=O)=O (stereo unspecified)	inconclusive: 0.631 µM [inhibitor, full curve]
COc1ccccc1C(=O)Nc1ccc(-c2nc3cc(C)cc(C)c3o2)cc1	inactive
O=c1oc2cc(Oc3ccc(C(F)(F)F)cc3[N+](=O)[O-])ccc2c2c1CCC2	inconclusive: 39.8 µM [inhibitor, single point]
O=C(O)c1ccc2c(c1)C(=O)N([C@@H](Cc1ccc(O)cc1)C(=O)O)C2=O	inconclusive: 0.708 µM [inhibitor, full curve, poor fit]
C=CCn1c(SCC(=O)c2c(N)n(C3CC3)c(=O)[nH]c2=O)nnc1-c1ccccc1OC	inactive
O=C(Nc1ccc(Cl)cc1)[C@@H]1[C@@H]2C(=O)N(c3ccc4ccccc4c3)C(=O)[C@@H]2[C@H]2C=CC=NN21	inactive
CCC[C@H](N[C@@H](C)C(=O)N1[C@H](C(=O)O)C[C@@H]2CCCC[C@@H]21)C(=O)OCC	inconclusive: 4.47 µM [inhibitor, full curve]
O=C(CSc1nnnn1-c1ccc2c(c1)CCC2)Nc1ccc2c(c1)OCCO2	inconclusive: 5.01 µM [inhibitor, full curve, poor fit]
Cc1ccc(Cn2c(C)c(CNCc3ccccc3F)c(C(=O)O)c2C)cc1	inactive
COc1ccc(CCNc2nc(-c3sc(N)nc3C)cs2)cc1OC	inconclusive: 1.58 µM [inhibitor, full curve, poor fit]
OCC[C@@H]1C[C@@H](O)[C@H](O)[C@]2(OCCCc3ccccc32)O1	inconclusive: 112 µM [inhibitor, partial curve, poor fit]
Cc1ccc(C)c(N2CCN(S(=O)(=O)c3ccc4c(c3)CC(C)N4C(=O)C3CC3)CC2)c1 (stereo unspecified)	inconclusive: 2.24 µM [inhibitor, full curve, poor fit]
Cc1cc(=O)nc2c3ccccc3n(C(C)C(=O)Nc3c(F)c(F)c(F)c(F)c3F)n12 (stereo unspecified)	inactive
Cc1ccc(/C=N\NC(=O)c2cc([N+](=O)[O-])cc([N+](=O)[O-])c2)o1	inconclusive: 0.631 µM [inhibitor, full curve]
Cc1sc(NC(=S)NC(=O)CCc2ccccc2)c(C(N)=O)c1C	inconclusive: 35.5 µM [inhibitor, full curve, poor fit]
